Data taken from ChEMBL document CHEMBL1201862, “PubChem BioAssay data set” (2004).
Several values for one entry are separate records, joined by “and”; a condition that tells them apart may be missing. Identical values can stand only once.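 Following 48 hours of exposure in 96-well plates, responses at five concentrations were used to interpolate endpoints linearly. GI50 is the concentration that inhibits growth by half.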 Activity calls are given as the source filed them. Rule as the data show it: active = GI50 up to about 1.1 µM and inactive = higher.

The compounds below were run on NCI-H322M (assay: NCI tumour cell line growth inhibition, 48 h).
With `COc1oc(C2C/C(=C/C(C)=C/C(C)=C/C(C)=C/c3ccc([N+](=O)[O-])cc3)CO2)c(C)c(=O)c1C` (configuration not stated) the GI50 was inactive: 23.6 µM. `N=C(N)Nc1ccc(-c2ccc(NC(=N)N)cc2)cc1` was tested, and the GI50 was inactive: 48.2 µM. In the case of `O=C(O)CNC(=O)c1cccc2c(=O)c3ccccc3[nH]c12`, the GI50 is reported as inactive: > 100 µM. For `O=C(n1[nH]c(=O)n(-c2ccc([N+](=O)[O-])cc2)c1=O)C(Cl)(Cl)Cl`, the GI50 was inactive: > 75 µM. `Nc1nc(=S)n(-c2ccc(Cl)cc2)c2nc3ccccc3cc12` was tested, and the GI50 was inactive: 28.3 µM. For `C[C@H](NC(=O)CNC(=O)CCCCCC(=O)NCC(=O)N[C@@H](C)C(=O)OCc1ccccc1)C(=O)OCc1ccccc1`, the GI50 was inactive: > 100 µM. With `O=C1O/C(=C(\Br)c2ccc([N+](=O)[O-])cc2)c2ccccc21` the GI50 was inactive: > 100 µM. For `O=C1c2scc(-c3ccc(Cl)cc3)c2-n2cccc21`, the GI50 was inactive: > 100 µM. In the case of `CC1CC2C3CCC4=CC(=O)C=CC4(C)C3(F)C(O)CC2(C)C1(O)C(=O)CO.Cc1cc(NS(=O)(=O)c2ccc(/N=N\c3cc(/N=N/c4ccc(S(=O)(=O)Nc5cc(C)nc(C)n5)cc4)c(OC(=O)C(Cl)Cl)c4cccc(NC(=O)C(Cl)Cl)c34)cc2)nc(C)n1`, the GI50 is reported as inactive: 20.4 µM. In the case of `Nc1n[nH]c(N)n1` [GUANAZOLE], the GI50 is reported as inactive: > 10000 µM. With `C=CC/C=C/Cc1csc(C(C)(C)C(O)C/C=C/C(=C)CCNC(=O)OC)n1` (configuration not stated) the GI50 was inactive: > 14.6 µM. In the case of `NC12CC3CC(C1)CC(Cl)(C3)C2`, the GI50 is reported as inactive: > 100 µM. `O=[N+]([O-])c1cccc2nc3ccccc3c(NCCCNc3c4ccccc4nc4cccc([N+](=O)[O-])c34)c12` was tested, and the GI50 was active: < 0.0214 µM. With `COc1cc2oc(=O)ccc2cc1CC=C(C)C` [SUBEROSIN] the GI50 was inactive: 69.8 µM. `CC1=C(C(=O)NCC(C)O)CC(C(=O)NCC(C)O)=C(C)N1` (configuration not stated) was tested, and the GI50 was inactive: > 100 µM. `Cc1ccccc1NC(=O)c1ccc([N+](=O)[O-])cc1` was tested, and the GI50 was inactive: > 100 µM. `CCOC(=O)c1ncn2c1[nH]c(=S)c1ccccc12` was tested, and the GI50 was inactive: > 100 µM. In the case of `CCCCOC(=O)Nc1ccc(S(=O)(=O)Nc2c(Cl)cccc2Cl)cc1`, the GI50 is reported as inactive: 47 µM. For `COc1ccc([C@@H]2CC(=O)NCCCCNCCCN2)cc1`, the GI50 was inactive: > 100 µM. For `O=C1C(=O)N(C(=O)c2ccc(Cl)c(Cl)c2)c2ccccc21`, the GI50 was inactive: > 100 µM. In the case of `NC(=O)C#CC(N)=O`, the GI50 is reported as inactive: > 100 µM and inactive: 187 µM. In the case of `O=C(O)CN(CC(=O)O)Cc1cc(C#Cc2ccc(C#Cc3ccccc3)cc2)cc(CN(CC(=O)O)CC(=O)O)n1`, the GI50 is reported as inactive: 21.1 µM. In the case of `CCCCCCCCC#CCCCCCCC(F)C(=O)O` (configuration not stated), the GI50 is reported as inactive: > 100 µM. `NC(=O)C1CCCN1C(=O)N(CCCl)N=O` (configuration not stated) was tested, and the GI50 was inactive: > 100 µM. With `CN(C)CN(C)c1nc(N(C)C)nc(N(C)C)n1` the GI50 was inactive: > 100 µM. For `C[N+](C)(C)CCOC(=O)/C=C/c1c[nH]cn1`, the GI50 was inactive: > 500 µM. For `CN1C(c2ccccc2)CC(O)CC1c1ccccc1` (configuration not stated), the GI50 was inactive: > 100 µM. For `O=c1ssc2c1Nc1c(ssc1=O)S2`, the GI50 was inactive: 17 µM. For `CC(C)OC(=O)c1cc(NC(=O)C(C)(C)C)c(F)cc1Cl`, the GI50 was inactive: > 100 µM. In the case of `CC1CCC2C(C)C(=O)OC3OC4(C)CCC1C32OO4` (configuration not stated), the GI50 is reported as inactive: > 75.3 µM. `CC1(C)OC(=O)N(c2ccccc2)C12C=Cc1cc([N+](=O)[O-])cc([N+](=O)[O-])c1O2` (configuration not stated) was tested, and the GI50 was inactive: > 100 µM. `CC1=[N+](C)CCCN1C` was tested, and the GI50 was inactive: > 100 µM. For `O=c1cc(-c2ccccc2)oc2cc(OCC(O)COc3ccc4c(=O)cc(-c5ccccc5)oc4c3)ccc12`, the GI50 was inactive: > 100 µM. `CC(C(=O)N1C(=O)N(C(=O)C(C)C(O)c2ccccc2)C(c2ccccc2)C1c1ccccc1)C(O)c1ccccc1` (configuration not stated) was tested, and the GI50 was inactive: 22.7 µM. In the case of `Cc1c(CN)c(C)c(CN)c(C)c1CN`, the GI50 is reported as inactive: > 100 µM. For `O=c1cc(-c2ccccc2)oc2cc(OCCCOc3ccc4c(=O)cc(-c5ccccc5)oc4c3)ccc12`, the GI50 was inactive: > 100 µM. For `Cc1cc(S(=O)(=O)Nc2cc(N)n[nH]2)c(SCc2nc(N)nc(N(C)C)n2)cc1Cl`, the GI50 was inactive: > 10 µM. With `CC(C)Sc1nc(C#N)cc2c1CCCC2` the GI50 was inactive: > 100 µM. In the case of `COC(=O)C1C(C(=O)OC)C2C(=O)C3C(C(=O)OC)C(C(=O)OC)C3C(=O)C12` (configuration not stated), the GI50 is reported as inactive: > 100 µM. In the case of `O=c1c2ccccc2sc2c(CO)ccc(NCCN3CCCCC3)c12`, the GI50 is reported as inactive: 3.27 µM. In the case of `Cc1c(/N=C\c2ccc(N(CCC#N)CCC#N)cc2)c(=O)n(-c2ccccc2)n1C`, the GI50 is reported as inactive: > 52.2 µM. `c1ccc([P+](CC[P+](c2ccccc2)(c2ccccc2)c2ccccc2)(c2ccccc2)c2ccccc2)cc1` was tested, and the GI50 was inactive: > 100 µM. For `Cn1/c(=N\S(=O)(=O)c2ccccc2)n(S(=O)(=O)c2ccccc2)c2ccccc21`, the GI50 was inactive: 33.5 µM. In the case of `N#CSC#CCCC#CSC#N`, the GI50 is reported as inactive: 21.2 µM. In the case of `O=[N+]([O-])c1ccc2nc(O)c(/C=C(\O)c3ccccc3)nc2c1`, the GI50 is reported as inactive: 8.71 µM. For `N=C(N)SCc1cccc(-c2nc3ccccc3c(=O)o2)c1`, the GI50 was inactive: > 100 µM. `COc1ccc(-c2cc(=O)c3c(O)c(OC)c(O)cc3o2)cc1O` was tested, and the GI50 was inactive: 11.6 µM. `O=C1c2ccc(O)cc2OC(c2cc(O)c(O)c(O)c2)C1O` (configuration not stated) [DIHYDROBINETIN] was tested, and the GI50 was inactive: > 100 µM. `Cc1cc(C)c2nccc(NCCCN(C)C)c2c1[N+](=O)[O-]` was tested, and the GI50 was inactive: 39.4 µM. With `CCOP(=O)(OCC)/C(C#N)=C\c1ccc(OC(C)=O)cc1` the GI50 was inactive: > 100 µM. `CC(=O)CC(=O)Nc1ccccc1[N+](=O)[O-]` was tested, and the GI50 was inactive: > 100 µM. In the case of `Cc1nc(C(N)=S)sc1C(=O)/C=C/c1cccc(O)c1`, the GI50 is reported as inactive: > 100 µM. With `CC(=O)OCC1OC(n2cc(F)c(=O)[nH]c2=O)C(NC(=O)N(CCCl)N=O)C(OC(C)=O)C1OC(C)=O` (configuration not stated) the GI50 was inactive: > 100 µM. For `O=[N+]([O-])c1c(F)c(F)c2c(c1F)Nc1ccccc1S2`, the GI50 was inactive: 4.09 µM. For `Cc1[nH]c2ccccc2c1/C=C/c1c(C)[nH]c2ccccc12`, the GI50 was inactive: > 100 µM. In the case of `O=C(O)/C(O)=C1/C=C(c2ccccc2)c2ccccc21`, the GI50 is reported as inactive: 25.4 µM. In the case of `CC(C)(C)OC(=O)N1CCc2c(n(C/C=C/c3ccccc3)[nH]c2=O)C1`, the GI50 is reported as inactive: > 100 µM. With `COc1ccc(N/N=C2\C3=C(CCC(C)(C)O3)C(=O)c3ccccc32)cc1` the GI50 was inactive: 26.5 µM. In the case of `CC(C)N(C(C)C)S(=O)(=O)C[C@]12CC[C@H](CC13OCC(CS(=O)(=O)c1ccccc1)O3)C2(C)C` (some centres not stated), the GI50 is reported as inactive: > 84.1 µM. `Nc1nc(O)c2c(ncn2CC(O)CO)n1` (configuration not stated) was tested, and the GI50 was inactive: > 100 µM. `C[C@@H]1C[C@@H](O)[C@@]2(O)C13CC(=O)OC(C3)[C@@H](C)[C@@]2(C)CO` (some centres not stated) was tested, and the GI50 was inactive: > 100 µM. With `CCOC(=O)c1ccc(-c2onc(C)c2Br)[nH]1` the GI50 was inactive: > 100 µM. For `CC(=O)CC1CCC(=O)CCC(=O)OC(CC(C)=O)CCC(=O)CCC(=O)O1` (configuration not stated), the GI50 was inactive: > 100 µM. `O=[N+]([O-])c1cccc2nc3ccccc3c(NCCN(CCO)CCO)c12` was tested, and the GI50 was active: 0.00585 µM. In the case of `Cc1cc(Cc2c(F)c(F)c(C(c3cc(C)no3)c3c(F)c(F)c(F)c(F)c3F)c(F)c2F)on1` (configuration not stated), the GI50 is reported as inactive: > 100 µM. For `Oc1ccccc1CNCc1ccccc1O`, the GI50 was inactive: > 100 µM. `COC1=CC(=O)c2c(c(COP(=O)(N(C)CCBr)N(C)CCBr)cn2C)C1=O` was tested, and the GI50 was active: 0.627 µM.
